According to article PMC4336329 (PLoS ONE, 2015):
The campaign covered roughly 310,000 compounds. About 2,200 (0.71%) showed an effect of 50% or more. The effect is printed as a negative number. Some of the results follow.

target: human ether-à-go-go-related gene (hERG) potassium channel (human, UniProt Q12809); assay: primary screen, population patch clamp on CHO cells stably expressing hERG
Sequence (Q12809 whole entry, looked up): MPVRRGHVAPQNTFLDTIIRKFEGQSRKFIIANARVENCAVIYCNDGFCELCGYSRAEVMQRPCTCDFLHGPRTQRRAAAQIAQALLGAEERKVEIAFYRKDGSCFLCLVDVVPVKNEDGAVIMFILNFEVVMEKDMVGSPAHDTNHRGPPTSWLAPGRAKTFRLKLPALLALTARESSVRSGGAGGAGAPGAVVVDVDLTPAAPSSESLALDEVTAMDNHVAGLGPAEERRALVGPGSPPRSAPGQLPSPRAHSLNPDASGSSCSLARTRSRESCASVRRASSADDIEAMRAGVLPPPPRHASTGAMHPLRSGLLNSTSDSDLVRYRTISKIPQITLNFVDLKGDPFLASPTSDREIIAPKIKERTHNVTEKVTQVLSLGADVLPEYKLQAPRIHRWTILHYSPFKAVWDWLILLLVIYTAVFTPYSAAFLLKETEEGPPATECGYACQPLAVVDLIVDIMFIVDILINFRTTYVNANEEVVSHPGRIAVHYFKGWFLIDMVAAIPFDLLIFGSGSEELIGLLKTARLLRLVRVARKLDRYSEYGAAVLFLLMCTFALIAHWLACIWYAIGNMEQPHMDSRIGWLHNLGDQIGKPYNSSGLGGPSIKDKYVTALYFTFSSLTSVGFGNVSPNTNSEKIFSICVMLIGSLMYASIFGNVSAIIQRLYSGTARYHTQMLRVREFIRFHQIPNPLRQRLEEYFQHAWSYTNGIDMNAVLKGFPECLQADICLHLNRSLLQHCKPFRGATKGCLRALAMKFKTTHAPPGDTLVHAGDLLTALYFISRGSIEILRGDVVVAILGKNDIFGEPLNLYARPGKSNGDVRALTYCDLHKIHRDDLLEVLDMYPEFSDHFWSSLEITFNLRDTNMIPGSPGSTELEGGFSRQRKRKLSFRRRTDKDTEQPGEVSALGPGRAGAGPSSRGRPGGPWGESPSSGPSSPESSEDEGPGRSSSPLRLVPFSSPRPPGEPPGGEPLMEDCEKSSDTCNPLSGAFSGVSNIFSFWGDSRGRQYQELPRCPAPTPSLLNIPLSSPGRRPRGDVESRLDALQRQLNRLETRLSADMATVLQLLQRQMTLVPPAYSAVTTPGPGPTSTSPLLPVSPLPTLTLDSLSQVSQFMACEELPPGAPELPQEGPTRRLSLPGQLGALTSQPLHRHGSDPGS

| SMILES | hERG current change (%, negative = inhibition) at 1uM |
| --- | --- |
| COc1ccc(N(CC(=O)NC2CC3CCC2C3)S(=O)(=O)c2ccccc2)cc1Cl (stereo not drawn) | -5.26% |
| CCn1c(=O)c(=O)n(CC)c2cc(S(=O)(=O)Nc3cc(C)ccc3C)ccc21 | -7.63% |
| COc1ccccc1-c1nc(C#N)c(NCc2ccc(F)cc2)o1 | -0.0431% |
| O=C(c1csc2c1CCCCC2)N1CCN(c2ncccn2)CC1 | 4.87% |
| CCC1S/C(=N/N=C/c2ccco2)N(c2ccc(F)cc2)C1=O (stereo not drawn) | 6.62% |
| COc1ccc(OC)c(N2Cc3cc(C)c(C)cc3C2)c1 | 5.02% |
| Cc1cccc(-c2cc(C(=O)Nc3sc(C)c(C)c3C(N)=O)c3ccccc3n2)c1 | 13.8% |
| CCc1ccccc1Oc1coc2cc(O)ccc2c1=O | 13.9% |
| Cc1cccc(C)c1Nc1c(-c2ccccc2O)nc2ncccn12 | 5.97% |
| CC(Sc1nnc(-c2ccco2)n1C)C(=O)N(C)C1CCCCC1 (stereo not drawn) | 14.6% |
| CCc1ccccc1N1C(=O)C2CC=CCC2C1=O (stereo not drawn) | -2.54% |
| O=C(Nc1ccc(Br)cc1)c1cccn1-c1ncc(C(F)(F)F)cc1Cl | 4.14% |
| CC(C)CN(C(=O)CN(C)C(=O)c1ccco1)c1c(N)n(CC(C)C)c(=O)[nH]c1=O | 15.6% |
| COc1ccccc1CN1CC(C(=O)N2CCC(C(=O)c3ccccc3)CC2)CCC1=O (stereo not drawn) | 2.78% |
| CC(C)c1ccc(NC2CCCN(C(=O)c3ccnc(Cl)c3)C2)cc1 (stereo not drawn) | 14.4% |
| CC(C)N1C(=O)CC2(CC[N+](C)(CCOC(=O)C(c3ccccc3)c3ccccc3)CC2)C1=O.[I-] (stereo not drawn) | 10.7% |
| CCCCc1nc2cc(C(=O)N3CCCC(COC)C3)ccc2o1 (stereo not drawn) | 4.55% |
| O=C(Cn1nnc(-c2ccccc2NC(=O)c2ccccc2)n1)Nc1ccc2c(c1)OCCO2 | 4.35% |
| Cc1nn(C)cc1/C=N/NC(=S)Nc1ccc(Cl)cc1Cl | 12.2% |
| COc1cccc(CNC(=O)COc2cc(O)c3c(c2)OC(C)(C)CC3=O)c1 | 7.66% |
| CSc1ccccc1C(=O)Nc1cc(C)ccc1C | 0.653% |
| O=C(Nc1ccc(F)cc1F)c1csc(-c2ccncc2)n1 | 4.74% |

| SMILES | hERG current change (%, negative = inhibition) at 1uM |
| --- | --- |
| O=C(NCc1cccnc1)C1CCCN(S(=O)(=O)c2ccc(Cl)cc2)C1 (stereo not drawn) | -4.82% |
| CN1CCN(c2ccc(S(=O)(=O)N3CCOCC3)cc2NC(=O)CC(C)(C)C)CC1 | 13.2% |
| NNC(=O)c1cccc(COCC(F)(F)C(F)F)c1 | 2.44% |
| Cc1ccsc1CN1CC(=O)N(c2c(C)cccc2C)C1=S | 6.37% |
| CNc1c([N+](=O)[O-])cnn1-c1ccccc1F | 15.3% |
| Cl.N=c1ccn2c(n1)O[C@H]1[C@H](O)[C@@H](CO)O[C@H]12 | 15.1% |
| N#CC1=C2N=C(N)c3ccccc3N2C2=C(C(=O)CCC2)C1c1ccccc1F (stereo not drawn) | 7.74% |
| Cc1ccc(NC(=O)CC2SC(=NC3CCCCC3)NC2=O)cc1 (stereo not drawn) | 0.278% |
| Cc1nn(Cc2c(F)c(F)c(F)c(F)c2F)c(C)c1NC(=O)c1ccc(COc2ccc(F)cc2)o1 | 3.61% |
| O=c1[nH]c(=S)[nH]c2c1CN(Cc1ccc(F)cc1)CC2 | 11.2% |
| O=C(COc1ccccc1)N/N=C/c1sc(=O)n(Cc2cccc(C(=O)O)c2)c1Cl | 11.1% |
| NS(=O)(=O)c1ccc(-n2nncc2-c2ccco2)cc1 | 14.4% |
| CCOC(=O)C(C)Oc1cccc2c(=O)n(CC(=O)Nc3ccc4c(c3)OCCO4)ccc12 (stereo not drawn) | 12.4% |
| CCOC(=O)c1nn(-c2ccccc2)c(=O)c(C#N)c1C | 9.51% |
| COc1ccc(-n2ncc3c(N4CCN(c5cc(C)ccc5C)CC4)ncnc32)cc1 | 9.42% |
| CCN(CC)C(=O)CSc1nnnn1-c1ccc(F)c(Cl)c1 | -6.84% |
| O=C(CNC(=O)c1ccccc1)N/N=C/c1ccccc1Cl | 8.46% |
| O=C(CCN1CCN(S(=O)(=O)c2cccc([N+](=O)[O-])c2)CC1)Nc1ccccc1F | 16.8% |
| NC(N)=NCc1cccc(I)c1.O=S(=O)(O)O | 14.5% |
| CCNS(=O)(=O)c1ccc2c3c(cccc13)C(=O)N2 | 7.71% |
| CC(C)(C)OC(=O)N1CCC(NC(=O)c2ncn(Cc3ccccc3)c2C(=O)NC2CCN(C(=O)OC(C)(C)C)CC2)CC1 | 10.5% |
| Cc1ncc(S(=O)(=O)c2ccc(Cl)cc2)c(N)n1 | 11.7% |

| SMILES | hERG current change (%, negative = inhibition) at 1uM |
| --- | --- |
| CCC(Sc1nc2c(c(=O)n1CC)SC(C)C2)C(=O)OC (stereo not drawn) | 12.1% |
| Fc1ccccc1Cc1noc(CN2CCCC(CN3CCOCC3)C2)n1 (stereo not drawn) | 5.99% |
| Cc1ccc(S(=O)(=O)N2CCC(C(=O)N/N=C/c3ccccc3[N+](=O)[O-])CC2)cc1 | 13.4% |
| CCC1SC(CC)C(=O)N(CC(=O)NCCc2ccccc2)C1=O (stereo not drawn) | 3.16% |
| CCOc1ccccc1N1CCN(C(=O)CNC(=O)c2ccc(OC)c(OC)c2)CC1 | 9.95% |
| O=[N+]([O-])c1ccc2cn(-c3ccccc3)nc2c1 | -2.39% |
| Cc1c(C)n(CCN(C)C)c2ncnc(NCc3ccccc3)c12 | -5.98% |
| CCN(CC)C(=O)CSC(Nc1ccc(F)cc1)=C(C#N)C#N | 10.4% |
| Cc1ccc(NC(=O)Cn2c(=O)oc3ccccc32)cc1C | 16.8% |
| O=C(C1CC1)N1CCc2cc(Br)cc(S(=O)(=O)N3CCN(c4ccccn4)CC3)c21 | 6.85% |
| Cc1ccnc(NC(=O)C(Cc2ccccc2)NC(=O)c2ccccc2)c1 (stereo not drawn) | 7.92% |
| COC(=O)CNC(=O)c1cc(-c2ccncc2)nc2ccc(C)cc12 | 5.69% |
| COc1ccc(Nc2nccc(-c3ccc(C#N)cc3)n2)cc1 | 1.09% |
| C=CCC1(O)C(=O)N2C(=C1C(=O)N1CCOCC1)c1ccccc1CC2(C)C (stereo not drawn) | 5.55% |
| O=C(c1ccc(OC2CCN(C/C=C/c3ccc(F)cc3)CC2)cc1)N1CCCC1 | -74.9% |
| CCOc1ccc(CCNC(=O)COC(=O)c2ccccc2O)cc1OCC | -1.08% |
| COc1ccc(NC(=O)COc2ccc(C)c(C)c2)cc1S(=O)(=O)N1CCCCC1 | 2.14% |
| CN(C(=O)CCc1nnc(CCCCc2ccccc2)o1)C1CCOCC1 | 7.66% |
| Cn1nnnc1SCC(=O)NNC(=O)c1ccc(Br)cc1 | 17.6% |
| CCc1ccc(N2C(=O)CN(CC(=O)OC)C2=S)cc1 | 17.4% |
| CC[N+](C)(C)Cc1ccccc1Br.Cc1ccc(S(=O)(=O)[O-])cc1 | 9.07% |
| O=[N+]([O-])c1ccccc1/C=C/CN1CCCCC1 | 3.97% |

| SMILES | hERG current change (%, negative = inhibition) at 1uM |
| --- | --- |
| CC(C(=O)N1CCOCC1)c1ccccc1 (stereo not drawn) | 7.75% |
| CCC(C)C(=O)Nc1ccc(S(=O)(=O)N2CCCC2)cc1 (stereo not drawn) | 15.3% |
| Cc1[nH]c(C)c(S(=O)(=O)NCCc2ccccc2)c1C(=O)N1CCCCC1 | 7.49% |
| CC(/C=C/c1ccc2c(c1)OCO2)=N\NC(=O)c1cccc([N+](=O)[O-])c1 | 5.1% |
| NC(=O)[C@H](Cc1cc2ccccc2s1)NC(=O)[C@@H]1CC2(CC(c3cccc(NC(=O)[C@@H]4CCC(=O)N4)c3)=NO2)CN1C(=O)/C=C/c1c(F)cccc1Cl (stereo partly drawn) | 7.81% |
| O=C(COC(=O)CSc1ccc([N+](=O)[O-])cc1)NCc1cccs1 | 20.5% |
| CN(C)C(=O)N1CCC(C(=O)NCc2cccs2)CC1 | 6.44% |
| NS(=O)(=O)c1ccc(CCNC(=O)CCCC2=NS(=O)(=O)c3ccccc3N2)cc1 | 21.9% |
| Cc1ccc(C(=O)NNC(=O)C(C)Sc2nc(N)cc(N)n2)cc1 (stereo not drawn) | 1.28% |
| CC(C)c1cc(O)c(-c2ccccc2)c(=O)n1-c1ccc(Cl)cc1 | 12.1% |
| CC1C(=O)CC(c2ccccc2)N(C)C1c1ccccc1 (stereo not drawn) | 2.89% |
| CC12CN3CC(C)(CN(C1)C3c1ccc(Br)cc1)C2 (stereo not drawn) | -9.19% |
| Cc1c(Cl)cccc1NC(=O)Nc1ccn(C)n1 | 5.82% |
| O=C(CCC(=O)N/N=C/c1cc(Cl)cc(Cl)c1O)NCc1ccccc1 | 18.2% |
| Fc1cccc(CSc2ccc(-c3ccco3)nn2)c1 | 8.16% |
| Cc1ccc(S(=O)(=O)Cc2cc(F)c([N+](=O)[O-])cc2[N+](=O)[O-])cc1 | 13% |
| COc1cccc(NC(=O)CSc2nnc(-c3ccc(C)cc3)o2)c1 | 6.82% |
| Cc1cc(C)nc(NS(=O)(=O)c2ccc(NC(=O)c3ccc(S(=O)(=O)N4CCOCC4)cc3)cc2)n1 | 2.44% |
| COc1ccc(CCNC(=O)CCNS(=O)(=O)c2cccc3nonc23)cc1OC | 7.22% |
| Cn1c(=O)[nH]c(=O)c2c1nc(SCC(O)CO)n2CCCc1ccccc1 (stereo not drawn) | 13% |
| O=C(O)CCNc1nc(C(F)(F)F)nc2ccccc12 | 16.4% |
